# Among all 220,000 compounds or so, about 5,700 (2.6%) were called active. The shares of active, inactive and inconclusive entries below differ from those in the screen. The call rests on the fitted dose curve; in most records, active means well fitted inhibition curve with a large enough effect; inconclusive means small, poorly fitted or top-dose-only effect; inactive means no such curve, though single readings can be large or run the other way. Where the call is inconclusive, the potency comes from a doubtful curve fit.
# Target: Lysine-specific demethylase 5B (Homo sapiens) (UniProt Q9UGL1)
# Test: Primary screen for KDM5B Histone Demethylases FDH-coupled qHTS; further: nearly all actives have a fitted effect of over 70% in size; on activity change, negative = inhibition: 0% is about no effect
# Conditions: FDH-coupled NADH fluorescence (FDH is formaldehyde dehydrogenase); activity change, negative = inhibition: at 57.7 µM (top of the series) unless noted
# Outline: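 Inhibition is measured as reduced NADH fluorescence generation from FDH coupling to formaldehyde release. Truncated KDM5BΔAP at 200 nM final acts on H3K4me3 peptide (12.5 µM in substrate mix) in pH 7.5 HEPES buffer with Tween-20, 30 min, room temperature.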
# Potency means the concentration at half of the fitted maximal effect; tags describe the fitted curve by direction and shape.
# UniProt Q9UGL1, sequence (Q9UGL1 whole entry, looked up): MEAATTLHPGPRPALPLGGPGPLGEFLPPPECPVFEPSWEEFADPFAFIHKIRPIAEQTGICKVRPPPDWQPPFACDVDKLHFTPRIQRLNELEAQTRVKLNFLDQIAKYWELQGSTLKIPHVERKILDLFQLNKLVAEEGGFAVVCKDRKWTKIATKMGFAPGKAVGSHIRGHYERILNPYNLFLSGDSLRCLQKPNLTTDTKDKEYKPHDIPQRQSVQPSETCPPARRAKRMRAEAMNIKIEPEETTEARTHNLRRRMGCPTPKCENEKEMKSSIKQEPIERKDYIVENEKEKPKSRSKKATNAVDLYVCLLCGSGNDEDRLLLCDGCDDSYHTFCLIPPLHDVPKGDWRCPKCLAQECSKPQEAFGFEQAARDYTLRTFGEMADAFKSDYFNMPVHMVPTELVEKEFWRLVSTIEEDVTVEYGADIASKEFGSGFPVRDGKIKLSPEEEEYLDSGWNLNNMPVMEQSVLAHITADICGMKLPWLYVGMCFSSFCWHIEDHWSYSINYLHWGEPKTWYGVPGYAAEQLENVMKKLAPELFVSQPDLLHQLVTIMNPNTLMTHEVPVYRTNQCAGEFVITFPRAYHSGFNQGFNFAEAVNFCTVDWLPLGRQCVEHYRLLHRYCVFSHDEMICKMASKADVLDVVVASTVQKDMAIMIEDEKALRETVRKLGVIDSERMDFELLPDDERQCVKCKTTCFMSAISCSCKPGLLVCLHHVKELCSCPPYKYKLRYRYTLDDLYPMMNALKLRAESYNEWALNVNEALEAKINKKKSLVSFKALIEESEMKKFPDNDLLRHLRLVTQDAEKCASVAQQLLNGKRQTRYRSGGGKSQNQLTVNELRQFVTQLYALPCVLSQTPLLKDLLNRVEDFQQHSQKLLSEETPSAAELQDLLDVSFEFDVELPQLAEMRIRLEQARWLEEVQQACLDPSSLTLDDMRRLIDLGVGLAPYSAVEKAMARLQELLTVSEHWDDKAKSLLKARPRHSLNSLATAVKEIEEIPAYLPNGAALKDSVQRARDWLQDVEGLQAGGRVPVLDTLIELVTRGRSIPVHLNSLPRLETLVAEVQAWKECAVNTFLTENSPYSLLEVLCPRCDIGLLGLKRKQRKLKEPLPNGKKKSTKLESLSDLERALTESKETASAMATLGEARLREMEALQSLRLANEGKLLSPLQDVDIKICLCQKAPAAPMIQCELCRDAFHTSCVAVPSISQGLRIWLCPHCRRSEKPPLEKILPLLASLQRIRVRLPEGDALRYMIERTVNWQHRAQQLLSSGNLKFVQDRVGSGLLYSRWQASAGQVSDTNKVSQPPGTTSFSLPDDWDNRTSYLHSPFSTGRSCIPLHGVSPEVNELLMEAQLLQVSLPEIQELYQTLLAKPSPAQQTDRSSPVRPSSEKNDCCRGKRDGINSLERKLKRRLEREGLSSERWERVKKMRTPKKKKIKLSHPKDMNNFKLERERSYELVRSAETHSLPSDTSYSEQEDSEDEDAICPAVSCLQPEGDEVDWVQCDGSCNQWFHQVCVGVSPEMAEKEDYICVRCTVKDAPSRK
SMILES,"activity change, negative = inhibition",Potency
Cc1ccc(CN2CCN(C3CCN(C(=O)Nc4ccccc4C(F)(F)F)CC3)C(=O)C2=O)cc1,inconclusive: -31.1% [inhibitor],
CCN1c2cc(C(=O)Nc3ccc(Cl)cc3)ccc2C(=O)N2CCCCCC21 (stereo unspecified),,"inconclusive: 31.6 µM [inhibitor, partial curve, poor fit]"
CC(=O)NCCCC(=O)NNC1CC(=O)N(c2cccc(Cl)c2)C1=O (stereo unspecified),,"inconclusive: 20 µM [inhibitor, partial curve, poor fit]"
O=C(CN1CCCCCC1)N1CC(Oc2ccccc2-c2nc(C3CC3)no2)C1,,"inconclusive: 17.8 µM [inhibitor, partial curve]"
Cc1ccccc1CNC(=O)c1cc2cc(S(=O)(=O)N3CCCCC3)ccc2n1C,,"inconclusive: 39.8 µM [inhibitor, single point]"
CC1(c2ccc3c(c2)OCCO3)NC(=O)N(CC(=O)c2c[nH]c3ccccc23)C1=O (stereo unspecified),inactive: 3.66%,
Cc1ccc(CCNC(=O)c2cc3c(N4CCSCC4)nc(C)cn3n2)cc1,,"inconclusive: 39.8 µM [inhibitor, single point]"
Fc1ccc(C2C=C(c3ccccc3)NC(=S)N2)cc1 (stereo unspecified),,"inconclusive: 10 µM [inhibitor, partial curve, poor fit]"
O=C(c1nc2c(o1)CCN(Cc1ccccc1F)CC2)N1CCOCC1,inactive: -4.96% [at 86.2 µM],
COc1ccc(C(=O)NCCn2cc(SCc3cc(C)ccc3C)c3ccccc32)cc1,inconclusive: -54.6% [inhibitor],
CC(CNS(=O)(=O)c1ccc2c(c1)CC(=O)N2C)c1ccccc1 (stereo unspecified),,"inconclusive: 2 µM [inhibitor, full curve, poor fit]"
COc1ccc(CN2Cc3cc(NC(=O)c4ccc(F)cc4)ccc3OC(C)C2=O)c(OC)c1 (stereo unspecified),,"inconclusive: 39.8 µM [inhibitor, single point]"
COc1ccc(-c2ccc3nnc(CNC(=O)COc4ccc(F)cc4)n3n2)cc1,,active: 28.2 µM
C=C(C)[C@@H]1CCC2(C(=O)OC)CC[C@]3(C)C(CCC4[C@@]5(C)C/C(=C\c6ccccc6)C(=O)C(C)(C)C5CC[C@]43C)C12 (stereo partly specified),inactive: 15.5%,
Cc1ccccc1-c1nc(C#N)c(NCCc2ccccc2)o1,,"inconclusive: 28.2 µM [inhibitor, partial curve, poor fit]"
CCCCn1c(=N)c(C(=O)NC2CCCCC2)cc2c(=O)n3cccc(C)c3nc21,,"inconclusive: 4.47 µM [inhibitor, partial curve, poor fit]"
CCOc1ccc(CCNC(=O)c2cn(-c3cccc(OC)c3)c(=O)c3ccccc23)cc1,,"inconclusive: 25.1 µM [inhibitor, single point]"
Cc1ccc(C2Cn3cnc(C(=O)N4CCC(C(=O)NCc5cccc(F)c5)CC4)c3CO2)cc1 (stereo unspecified),inactive: -14.4%,
CC(NC(=O)c1cc(-c2ccco2)nc2ccccc12)c1ccccc1 (stereo unspecified),,"inconclusive: 28.2 µM [inhibitor, partial curve, poor fit]"
O=C(O)CCN1C(=O)/C(=C\c2ccc(OCc3ccccc3)c(OCc3ccccc3)c2)SC1=S,,"inconclusive: 25.1 µM [inhibitor, partial curve, poor fit]"
Cc1cccc(-c2nocc2CCC(=O)N2CCN(c3ccccn3)CC2)c1,,"inconclusive: 22.4 µM [inhibitor, single point]"

SMILES,"activity change, negative = inhibition",Potency
Cc1cc(C)cc(-n2c(C)nc3cc(C(=O)NCc4ccc(F)cc4)ccc32)c1,,"inconclusive: 28.2 µM [inhibitor, partial curve, poor fit]"
O=C(NCc1ccc(F)cc1)c1ccc(Cn2c(SCc3ccc(F)cc3)nc3cccnc32)cc1,,"inconclusive: 35.5 µM [inhibitor, partial curve, poor fit]"
CC(C)Cn1c(=O)c2ccccc2n2c(CCC(=O)NCc3ccc(Cl)cc3)nnc12,inconclusive: -32.8% [inhibitor],
CCN(CCCNC(=O)c1cc2cc3ccc(OC)cc3nc2s1)c1cccc(C)c1,,"inconclusive: 22.4 µM [inhibitor, single point]"
COCC1CN(C)CC12CCN(C(=O)c1ccc(C)cc1C)CC2 (stereo unspecified),,"inconclusive: 6.31 µM [inhibitor, partial curve, poor fit]"
COc1cc(C(=O)N2CCN(c3cc(-c4cccs4)[nH]n3)CC2)cc(OC)c1OC,,"inconclusive: 31.6 µM [inhibitor, partial curve, poor fit]"
CCCN1C(=O)c2[nH]nc(-c3cccc(OC)c3)c2C1c1ccccn1 (stereo unspecified),inconclusive: -39.9% [inhibitor],
COc1ccc(C(O)(C2CCCCC2)C(CN2CCCCC2)c2ccccc2)cc1 (stereo unspecified),inactive: 1.75%,
N#Cc1cc(Oc2ccc(Br)cc2)c(Oc2ccc(Br)cc2)cc1C#N,,"inconclusive: 8.91 µM [inhibitor, full curve, poor fit]"
Cc1nc(CCC(=O)NCc2cc3n(n2)CCCN(C(=O)N(C)C)C3)n[nH]1,inactive: -23.6%,
O=C(O)CCn1ncc2cc(OCc3ccc(-c4cccc(CO)c4)cc3)ccc21,inactive: -25.1% [at 86.2 µM],
COc1ccc(-c2cc(OC(=O)c3ccccc3)c3c(C)oc(C)c3c(=O)c2)cc1OC,,"inconclusive: 22.4 µM [inhibitor, partial curve, poor fit]"
Cc1cc(C(=O)OC(C)C(=O)Nc2ccc(Cl)cc2F)c(C)o1 (stereo unspecified),inactive: 7.92%,
C#CCSc1nc(-c2ccccc2)c2cc(Cl)ccc2n1,,"inconclusive: 35.5 µM [inhibitor, partial curve, poor fit]"
CCc1nc2ccc(C(=O)NCc3ccc(SC)cc3)cc2nc1CC,,"inconclusive: 39.8 µM [inhibitor, single point]"
CCOc1ccc(-n2c(SCC(=O)Nc3ccc4c(c3)OCCO4)nc3c([nH]c4ccccc43)c2=O)cc1,,"inconclusive: 28.2 µM [inhibitor, partial curve, poor fit]"
CSc1nc2c(c(=O)[nH]c(=O)n2C)n1Cc1cccc(C)c1,inactive: 16.6%,
Cn1nc(C(=O)OCC(=O)NCC2CCCO2)c2ccccc2c1=O (stereo unspecified),inactive: -10.6%,
Cc1ccc2oc(C(=O)Nc3cccc4cccnc34)c(C)c2c1,inactive: -2.25%,
CNC(=O)c1cc2cc(-c3c(C)noc3C)nc(-c3ccccc3OC)c2o1,,"inconclusive: 31.6 µM [inhibitor, partial curve]"

# Reference: PubChem BioAssay AID1347165 (National Center for Advancing Translational Sciences (NCATS), 2019)
